The values that follow come from the supplement of paper PMC3334620.

Over roughly 33,000 sequences, “E-score (-0.5 to 0.5)” has its median near -0.043; the highest 2% begin near 0.37. The list shows a part of the results.

In this assay the target is T1, Upc2 (UniProt Q12151).
T1 sequence: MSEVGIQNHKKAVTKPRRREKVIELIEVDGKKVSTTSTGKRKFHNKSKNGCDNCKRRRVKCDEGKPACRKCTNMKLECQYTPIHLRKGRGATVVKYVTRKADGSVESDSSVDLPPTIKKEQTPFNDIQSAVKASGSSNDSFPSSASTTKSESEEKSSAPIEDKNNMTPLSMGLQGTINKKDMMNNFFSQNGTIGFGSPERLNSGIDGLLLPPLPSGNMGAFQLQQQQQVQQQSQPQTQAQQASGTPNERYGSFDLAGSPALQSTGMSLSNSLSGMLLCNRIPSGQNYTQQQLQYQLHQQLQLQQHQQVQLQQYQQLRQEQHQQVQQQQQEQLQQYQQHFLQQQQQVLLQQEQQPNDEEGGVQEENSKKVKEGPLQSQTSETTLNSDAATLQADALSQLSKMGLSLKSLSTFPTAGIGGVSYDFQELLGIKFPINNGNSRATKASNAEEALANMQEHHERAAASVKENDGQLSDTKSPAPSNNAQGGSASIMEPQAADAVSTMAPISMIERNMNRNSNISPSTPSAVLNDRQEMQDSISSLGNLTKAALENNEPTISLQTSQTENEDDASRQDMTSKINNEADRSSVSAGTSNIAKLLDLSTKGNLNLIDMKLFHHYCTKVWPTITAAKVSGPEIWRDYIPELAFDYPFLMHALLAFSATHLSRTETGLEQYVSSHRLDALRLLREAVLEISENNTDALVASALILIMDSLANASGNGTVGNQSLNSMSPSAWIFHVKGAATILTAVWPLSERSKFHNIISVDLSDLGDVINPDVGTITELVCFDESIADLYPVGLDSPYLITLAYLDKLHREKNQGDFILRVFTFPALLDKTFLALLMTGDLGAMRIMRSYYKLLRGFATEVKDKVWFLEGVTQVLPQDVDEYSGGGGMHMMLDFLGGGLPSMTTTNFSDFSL
In words: PBM E-score (8-mer binding enrichment) (E-score (-0.5 to 0.5)); higher = stronger / more preferred TF binding; most listed sequences are background and not binding sites. The settings on record: protein concentration: 200 nM; construct: GST-full length. The essentials: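 Bound GST-tagged yeast transcription factors, applied at about 100-200 nM to double-stranded universal all-10-mer Agilent arrays, were detected with fluorescent anti-GST. Scans were normalised with masliner. A modified Wilcoxon-Mann-Whitney statistic, the E-score, was assigned to each ungapped eight-base word pooled with its reverse complement by the Universal PBM Analysis Suite.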
With CTGCATCA, the “PBM E-score” value was -0.166.

For the sequence GGAGGAAC, the “PBM E-score” value was 0.0433. For CGGTCAAA, the “PBM E-score” value was determined as 0.169. The result for ATAAGGCG reads 0.114.

Regarding AGCTCAAA, the “PBM E-score” value amounted to 0.117. The figure for CGACGTGA is 0.151. As for ATCTCAAG, the “PBM E-score” value is -0.196. As for AGGCTTGA, the “PBM E-score” value was -0.192. In the case of CAAGACTC, the “PBM E-score” value is -0.0211.

Take CCGGTCAA: the “PBM E-score” value is -0.0371.

In the case of CGGCACCC, the “PBM E-score” value was -0.202. As for CATCGCGA, the “PBM E-score” value amounted to 0.152. As for CCAGTTCA, the “PBM E-score” value is -0.172.

For the sequence GAGGATAC, the “PBM E-score” value is 0.14. On to CCTCAGTA, for which the “PBM E-score” value was -0.0614.

On to AATCATTA, for which the “PBM E-score” value is -0.00862. In the case of CAGGTGGC, the “PBM E-score” value is -0.221.

As for ATAGTTGC, the “PBM E-score” value is -0.107.

As for ACTTGAAT, the “PBM E-score” value was -0.047. ACCAGCCG: the “PBM E-score” value was -0.104.

Turning to CGTAGTCA, the “PBM E-score” value amounted to 0.0064. As for TACAGAAA, the “PBM E-score” value was found to be 0.0627. Take CGACCTCC: the “PBM E-score” value is 0.175. In the case of ATGCAGAG, the “PBM E-score” value was -0.261.

Turning to ATGGCGAA, the “PBM E-score” value was -0.0883. The figure for GACAACTC is -0.0153; for ACCCCCTC it is -0.368. In the case of CCATGGTC, the “PBM E-score” value was -0.202. In the case of AAAAACAA, the “PBM E-score” value was determined as 0.0562. The figure for CGTCCTCA is -0.0832; for GGCTGAGA it is -0.243.

In the case of CAGCCCCC, the “PBM E-score” value is -0.131. Regarding CTGGGAGA, the “PBM E-score” value was -0.296. Consider AGCTGGGG, for which the “PBM E-score” value is -0.226. As for GTACCGAA, the “PBM E-score” value amounted to 0.12. Take CGCACCAA: the “PBM E-score” value amounted to 0.0612. The figure for ACGAATTC is 0.241. Regarding GGGATCGA, the “PBM E-score” value amounted to 0.0321.

Regarding ACCGTACC, the “PBM E-score” value was found to be 0.366.

Turning to GTCCATCA, the “PBM E-score” value was -0.187. As to GTAAGGCA, the “PBM E-score” value stood at 0.0637. The result for AGGTCCCG reads 0.0988; that for CACGGCTG, -0.267.

Take CCCCCGGC: the “PBM E-score” value was -0.305. In the case of ATATGGAG, the “PBM E-score” value was -0.0882. In the case of GATCCCGA, the “PBM E-score” value is -0.159.

On to CATTAGCA, for which the “PBM E-score” value is -0.117. Consider TGACCTAA, for which the “PBM E-score” value came to 0.147.

With AGGTGACT, the “PBM E-score” value is -0.0583. As to CTTTCCGC, the “PBM E-score” value is -0.0854. For CCACATTC, the “PBM E-score” value was -0.14. GCAGATCC: the “PBM E-score” value is -0.161.

As to AGGGGGCC, the “PBM E-score” value was -0.255. Regarding CTAAGATC, the “PBM E-score” value was -0.00734. As for CCCAATAG, the “PBM E-score” value is -0.155. Take AGCGTTTC: the “PBM E-score” value stood at 0.0667. Turning to GCGTCCGA, the “PBM E-score” value was determined as 0.0827. The figure for GGTAGGTA is 0.0674; for ATCCTGTG it is -0.233. For the sequence GATAGACA, the “PBM E-score” value was -0.108. For the sequence CCAGTCGG, the “PBM E-score” value is -0.0866. For the sequence ATGGGCGG, the “PBM E-score” value was determined as 0.0321. With AATAATTA, the “PBM E-score” value is 0.0672. As to AAGTATGG, the “PBM E-score” value is -0.227. ATTAGTAC: the “PBM E-score” value stood at 0.0857. As to CGAGCACA, the “PBM E-score” value came out at 0.0999. GAATGTAA: the “PBM E-score” value turned out to be 0.0274. In the case of CGCGCTAA, the “PBM E-score” value turned out to be 0.184.

In the case of AGCCTTTG, the “PBM E-score” value is -0.129. In the case of AACGGAAT, the “PBM E-score” value came to 0.139. The result for ACAGCCGA reads -0.19; that for ACGTAGCA, 0.0515; that for AAGGTTAA, -0.0294. The figure for CGACGACC is 0.0755; for CGCCTTCC it is -0.139.

Take ATTCCAAC: the “PBM E-score” value was found to be 0.0482. As for GCCCGGCC, the “PBM E-score” value was -0.23.

As for AAACATTC, the “PBM E-score” value came out at 0.0717. For GGCGGATA, the “PBM E-score” value amounted to 0.0878. With AGATTAGG, the “PBM E-score” value is -0.13. Turning to CGTGCGTA, the “PBM E-score” value was found to be 0.297. The figure for GCCAACCA is -0.047; for AGCCGGAA it is 0.0207; for ATAGCTTC it is 0.0782. The result for GATACTAC reads -0.0465. Take CTCGGGTC: the “PBM E-score” value was found to be 0.183.
